Results taken from PubChem BioAssay AID485294 (National Center for Advancing Translational Sciences (NCATS), 2010).
About 150 (0.041%) of roughly 370,000 compounds were called active. This list was built around the results that the source calls inconclusive (neither active nor inactive); the mix of calls is not that of the screen. The call rests on the fitted dose curve; in most records, active means well fitted inhibition curve with a large enough effect; inconclusive means small, poorly fitted or top-dose-only effect; inactive means flat fitted curve, though single readings scatter. Potencies of inconclusive entries are left out as doubtful fits.

Biological target: Beta-lactamase (Escherichia coli (strain K12)) (UniProt P00811)
Experiment: qHTS Inhibitors of AmpC Beta-Lactamase (assay with detergent); further: nearly all actives have a fitted effect of over 25% in size
Conditions: AmpC hydrolysis of nitrocefin, absorbance 480 nm, 0.01% Triton; series mostly up to 114 µM
How it was run: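 20 mM phosphate pH 7.0 + 0.01% (detergent screen) or 0.0001% Triton X-100; 5.3 nM AmpC reagent; cpd preinc 15 min RT; nitrocefin (800 uM stock) to start; A480 q20 s × 4 min; Activity was normalised to no-enzyme and no-compound control wells.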
Potency means the concentration at half of the fitted maximal effect; tags describe the fitted curve by direction and shape.

Chain of UniProt P00811 (P00811 whole entry, looked up): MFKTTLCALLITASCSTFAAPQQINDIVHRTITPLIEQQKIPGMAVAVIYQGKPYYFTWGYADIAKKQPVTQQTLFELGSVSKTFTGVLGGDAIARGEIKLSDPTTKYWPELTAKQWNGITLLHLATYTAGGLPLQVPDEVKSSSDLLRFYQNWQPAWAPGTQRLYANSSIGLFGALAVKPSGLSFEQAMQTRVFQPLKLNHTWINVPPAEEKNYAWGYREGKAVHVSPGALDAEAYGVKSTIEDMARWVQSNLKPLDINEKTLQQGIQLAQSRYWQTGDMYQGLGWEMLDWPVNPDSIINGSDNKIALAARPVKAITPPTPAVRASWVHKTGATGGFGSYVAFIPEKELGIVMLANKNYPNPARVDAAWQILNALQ

| SMILES | Potency |
| --- | --- |
| Cc1ccc2cc(CN(Cc3cccs3)Cc3nnnn3C(C)(C)C)c3nnnn3c2c1 | inconclusive [inhibitor, full curve, poor fit] |
| COc1ccc(C2CC(c3cccs3)=NN2C(=O)CCl)cc1OC (stereo not drawn) | inconclusive [inhibitor, full curve] |
| COc1ccc(C(C(=O)NCC2CCCO2)N(C(=O)Cn2nnc3ccccc32)c2ccc(NC(C)=O)cc2)cc1OC (stereo not drawn) | inconclusive [inhibitor, partial curve, poor fit] |
| COc1cc(O)c(NC(C)=O)c2nonc12 | inconclusive [inhibitor, full curve, poor fit] |
| CN(CC(=O)Nc1ccc(Cl)c(C(F)(F)F)c1)C(=O)c1cn2ccccc2n1 | inactive |
| COc1ccc(/C=N/OCc2ccc(Br)cc2)c(OC)c1 | inactive |
| O=S(=O)(NCCc1ccccc1)c1cccc(S(=O)(=O)N2CCOCC2)c1 | inconclusive [inhibitor, partial curve, poor fit] |
| O=C(Nc1ccc(Br)cc1)N1CCc2ccccc2C1 | inactive |
| Cc1ccc(C)c(S(=O)(=O)Nc2cc3c4c(c2)CCN4C(=O)CC3)c1 | inconclusive [inhibitor, full curve, poor fit] |
| CCCn1c(=O)c2ccccc2n2c(SCC(=O)c3ccccc3)nnc12 | inconclusive [inhibitor, full curve, poor fit] |
| CCCn1c(SCC(=O)NC(C)C)nc2sc3c(c2c1=O)CCC3 | inconclusive [inhibitor, full curve, poor fit] |
| O=C(CCCCn1c(=O)c2ccccc2n(CC(=O)Nc2cccc(F)c2)c1=O)NCc1ccco1 | inconclusive [inhibitor, full curve, poor fit] |
| c1ccc(Cn2c(CN3CCCC3)nc3ccccc32)cc1 | inconclusive [inhibitor, full curve] |
| Nn1c(SCC(=O)Nc2nccs2)nnc1-c1ccccn1 | inconclusive [inhibitor, full curve, poor fit] |
| Cc1ccc(C)c(NC(=O)Cn2c(=O)n(-c3ccccc3C)c(=O)c3c2c2cc(C)ccc2n3C)c1 | inactive |
| Cc1ccccc1NC(=S)NCC(c1cccnc1)N(C)C (stereo not drawn) | inconclusive [inhibitor, full curve, poor fit] |
| COc1ccccc1NC(=O)c1ccc[n+]([O-])c1 | inconclusive [inhibitor, full curve, poor fit] |
| O=C(COC(=O)c1ccccc1O)NCCCc1ccccc1 | inconclusive [inhibitor, full curve, poor fit] |
